PubChem BioAssay AID624417 (National Center for Advancing Translational Sciences (NCATS), 2012)
About 6,400 (1.6%) of roughly 410,000 compounds were called active. This list was built around the results that the source calls inconclusive (neither active nor inactive); the mix of calls is not that of the screen. Calls come from the whole dose curve; as a rule, active = well fitted inhibition curve with a large enough effect; inconclusive = small, poorly fitted or top-dose-only effect; inactive = no such curve, though single readings can be large or run the other way. Potencies of inconclusive entries are left out as doubtful fits.

Molecular target: Glucagon-like peptide 1 receptor (Homo sapiens) (UniProt P43220)
Test: qHTS of GLP-1 Receptor Inverse Agonists (Inhibition Mode); note: nearly all actives have a fitted effect of over 55% in size
Settings: HEK293 GLP-1R CRE-luciferase, luminescence, 24 h, GLP-1R form is constitutively active; activity change, negative = inhibition: at 38.3 µM (top of the series) unless noted
Outline: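 GLP-1R inverse agonism mode: basal reporter luminescence in engineered HEK293 cells measured after one day of compound exposure at 37 deg C, with a 12 min room-temperature detection step.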
% is set by controls: 0 for no effect and ±100 for the full control effect; potency is the fitted concentration of half-maximal effect; tags give direction and shape of the fitted curve.

UniProt P43220, sequence (P43220 whole entry, looked up): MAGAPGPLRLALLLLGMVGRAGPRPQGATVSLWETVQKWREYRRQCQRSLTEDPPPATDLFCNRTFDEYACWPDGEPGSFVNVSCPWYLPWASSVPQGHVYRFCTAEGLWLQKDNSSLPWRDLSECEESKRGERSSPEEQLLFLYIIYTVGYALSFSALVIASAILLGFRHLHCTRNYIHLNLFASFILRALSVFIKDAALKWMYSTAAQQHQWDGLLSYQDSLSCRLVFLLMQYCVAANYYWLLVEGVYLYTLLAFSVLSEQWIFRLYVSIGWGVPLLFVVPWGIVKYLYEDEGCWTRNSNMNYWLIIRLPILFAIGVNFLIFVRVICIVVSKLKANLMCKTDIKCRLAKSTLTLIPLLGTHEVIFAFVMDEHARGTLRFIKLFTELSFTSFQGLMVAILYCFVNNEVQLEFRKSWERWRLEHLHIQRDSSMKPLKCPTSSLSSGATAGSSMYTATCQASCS

Row | Compound | Potency | activity change, negative = inhibition
1 | Cc1c(C(=O)N(C)c2ccc(Cl)cc2)cnn1-c1ccccc1 | inconclusive [inhibitor, single point] | –
2 | O=C(CNC(=O)c1ccc2c(c1)OCO2)N/N=C(Br)/C=C/c1ccccc1 | inconclusive [inhibitor, partial curve, poor fit] | –
3 | Cc1ccc(OCC(=O)N(Cc2ccccc2)c2ccccn2)cc1 | inconclusive [inhibitor, partial curve, poor fit] | –
4 | CN(c1nc(-c2ccc(Br)cc2)cs1)C1CCS(=O)(=O)C1 (stereo unspecified) | – | inactive: -4.09%
5 | Cc1ccc(S(=O)(=O)N(C)C)cc1NC(=O)c1cncc(Br)c1 | inconclusive [inhibitor, partial curve, poor fit] | –
6 | CCC(C)NC(=O)CO/N=C/c1ccccc1OC(F)F (stereo unspecified) | – | inactive: 17.3%
7 | Cc1cccc(C)c1N1CCN(S(=O)(=O)N2CCCCC2)CC1 | active: 10 µM | –
8 | CCN(CC)c1ccc(NC(=O)CN2CCN(S(=O)(=O)c3ccc(C(C)C)cc3)CC2)cc1 | inconclusive [inhibitor, single point] | –
9 | c1ccc2cc(CNCc3cccc4ccccc34)ccc2c1 | inconclusive [inhibitor, single point] | –
10 | O=C(c1ccc(Br)o1)N(Cc1ccccc1)Cc1ccccc1 | active: 10 µM | –
11 | COc1ccc(CNC(=O)c2ccc3c(c2)N=C(C)c2c(C)ccc(C)c2S3)cc1 | inconclusive [inhibitor, partial curve, poor fit] | –
12 | CCCC[C@@H]1CCCO[C@@](C(=O)NCc2ccccn2)(C(F)(F)F)C1 | active: 5.01 µM | –
13 | Cc1ccc(-c2nc3ccc(Cl)cn3c2Cc2cccc(Cl)c2)cc1 | inconclusive [inhibitor, partial curve, poor fit] | –
14 | COc1ccc(-n2cc(C(=O)NCCc3ccc(C)cc3)c3ccccc3c2=O)cc1 | inconclusive [inhibitor, partial curve, poor fit] | –
15 | CC1(C(=O)NC2CCN(Cc3ccccc3)CC2)CCN1CCc1ccccc1 (stereo unspecified) | inconclusive [inhibitor, single point] | –
16 | CC1CCCCN1C(=O)CSc1nc2ccccc2nc1Cc1ccccc1 (stereo unspecified) | inconclusive [inhibitor, single point] | –
17 | Nc1cccc(-c2nc3ccc(C(=O)c4ccccc4)cc3[nH]2)c1 | inconclusive [inhibitor, full curve] | –
18 | CCOC(=O)C1(CCc2ccccc2)CCN(Cc2c(O)cccc2OC)CC1 | inconclusive [inhibitor, partial curve, poor fit] | –
19 | OC(c1cccc(F)c1)c1ncc(-c2ccc(Oc3ccccc3)cc2)[nH]1 (stereo unspecified) | inconclusive [inhibitor, single point] | –
20 | COc1ccccc1NC(=S)NCCSc1ccc(Cl)cc1 | – | inactive: 1.08%
21 | COc1ccc(OC)c(CCNC(=O)c2ccc(CS(=O)(=O)c3ccc(Br)cc3)o2)c1 | inconclusive [inhibitor, single point] | –

Row | Compound | Potency | activity change, negative = inhibition
22 | CCN1CCC(N(Cc2ccc(F)cc2)C(=O)Nc2cc(C)ccc2C)CC1 | inconclusive [inhibitor, partial curve, poor fit] | –
23 | Nc1cc(S(=O)(=O)Nc2ccccc2Cl)ccc1N1CCCCC1 | inconclusive [inhibitor, single point] | –
24 | COc1ccc(NC(=S)N2CCN(S(=O)(=O)c3ccc(F)cc3)CC2)cc1 | – | inactive: -18.5%
25 | O=C(CN1C(=O)C2CCCCN2c2ccc(C(=O)N3CCCC3)cc21)NCc1ccc(F)cc1 (stereo unspecified) | – | inactive: -1.11%
26 | Cc1ccc(C(=O)Nc2cccc(C(=O)O)c2)cc1S(=O)(=O)N1CCCCC1 | inconclusive [inhibitor, single point] | –
27 | O=C(Nc1ccc2c(c1)OCO2)c1ccc([N+](=O)[O-])cc1[N+](=O)[O-] | – | inactive: -8.52%
28 | Cc1cccc(NC(=O)c2cc(-c3cccnc3)nc3c(C)cccc23)n1 | inconclusive [inhibitor, single point] | –
29 | Cc1csc2nc(O)c(C(=O)NCCCc3ccccc3)c(=O)n12 | inconclusive [inhibitor, partial curve, poor fit] | –
30 | C=CCOc1ccc(CNc2nccs2)cc1OCC | inconclusive [inhibitor, single point] | –
31 | Cc1ccc(-c2csc3ncnc(N4CCN(C)CC4)c23)cc1C | inconclusive [inhibitor, partial curve, poor fit] | –
32 | O=C(Nc1ccccc1)OCCOc1ccc(Br)cc1 | inconclusive [inhibitor, partial curve, poor fit] | –
33 | COCCOC(=O)c1c(C)oc2ccc(NS(=O)(=O)c3ccc(C)cc3)cc12 | inconclusive [inhibitor, single point] | –
34 | Cc1ccc(OCC(=O)NCCCNC(=O)COc2ccc(C)cc2)cc1 | inconclusive [inhibitor, single point] | –
35 | Nc1ccccc1C(=O)Nc1ccc(Cl)cc1Cl | inconclusive [inhibitor, single point] | –
36 | CC(C)N(C(=O)c1ccc(-c2ccccc2F)cc1)C(C)C | inconclusive [inhibitor, partial curve, poor fit] | –
37 | Cc1nn2c(NCCCN3CCOCC3)c3c(nc2c1-c1ccccc1)CCC3 | inconclusive [inhibitor, full curve, poor fit] | –
38 | N#CC1=C(N)NC(SCc2ccc(Cl)cc2)=C(C#N)C12CCCCC2 | inconclusive [inhibitor, partial curve, poor fit] | –
39 | OC(CN1CCN(c2ccc(C(F)(F)F)cn2)CC1)c1ccccc1 (stereo unspecified) | inconclusive [inhibitor, full curve] | –
40 | O=C1C2=C(Nc3ccccc3SC2c2ccc(C(F)(F)F)cc2)c2ccccc21 (stereo unspecified) | inconclusive [inhibitor, partial curve, poor fit] | –
41 | Cc1ccccc1-c1cc(C(=O)NCc2ccco2)nn1CC1CC(c2cccc([N+](=O)[O-])c2)=NO1 (stereo unspecified) | inconclusive [inhibitor, single point] | –
